The source of these data is publication PMC5027616.

These are yes or no findings as the source states them, for the method shown. For some assays here: Binding seen in cells or lysates may run through a third protein. Some binding calls cover weakened binding; strength is not graded here. For some assays here: Sequences can lack the tags named with a protein.

Experiment [1] addresses T1, human TMEM219, full-length cDNA in pcDNA3.1, expressed in 1HAEo cells (human) (UniProt Q86XT9).
T1 sequence: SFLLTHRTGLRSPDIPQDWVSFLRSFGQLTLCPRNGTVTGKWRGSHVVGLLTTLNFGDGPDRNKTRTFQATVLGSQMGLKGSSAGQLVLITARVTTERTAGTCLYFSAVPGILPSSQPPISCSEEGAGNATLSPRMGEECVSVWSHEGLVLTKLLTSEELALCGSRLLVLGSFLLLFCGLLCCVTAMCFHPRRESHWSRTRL
As to the kind of experiment: co-IP; lysates of 1HAEo cells co-transfected with IL-13Rα2 and TMEM219 plasmids (pcDNA3.1); IP with anti-IL-13Rα2 or anti-TMEM219, immunoblot for the other; Catch and Release V2.0 kit. For orientation: Immunoblotting shows a protein as a band on a membrane.

Experiment [2] deals with T2, IL-13Rα2-V1 (human) (UniProt Q14627).
T2 sequence: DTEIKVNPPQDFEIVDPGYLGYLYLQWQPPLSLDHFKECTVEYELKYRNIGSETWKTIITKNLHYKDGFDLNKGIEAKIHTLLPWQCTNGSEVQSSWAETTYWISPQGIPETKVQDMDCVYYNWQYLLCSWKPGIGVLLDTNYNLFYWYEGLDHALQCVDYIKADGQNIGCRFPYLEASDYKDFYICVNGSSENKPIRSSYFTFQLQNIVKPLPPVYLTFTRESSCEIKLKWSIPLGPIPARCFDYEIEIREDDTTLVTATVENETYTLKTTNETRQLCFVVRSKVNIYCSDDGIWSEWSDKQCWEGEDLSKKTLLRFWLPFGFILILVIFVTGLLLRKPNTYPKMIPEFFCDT
As to the kind of experiment: split reporter; BiFC with Venus YFP fragments V1 and V2 in live 1HAEo cells; vehicle, rChi3l1 (500 ng/ml) or rIL-13 (20 ng/ml); confocal microscopy and FACS.

Another experiment concerns the target T3, TMEM219-V2 (human) (UniProt Q86XT9).
T3 sequence: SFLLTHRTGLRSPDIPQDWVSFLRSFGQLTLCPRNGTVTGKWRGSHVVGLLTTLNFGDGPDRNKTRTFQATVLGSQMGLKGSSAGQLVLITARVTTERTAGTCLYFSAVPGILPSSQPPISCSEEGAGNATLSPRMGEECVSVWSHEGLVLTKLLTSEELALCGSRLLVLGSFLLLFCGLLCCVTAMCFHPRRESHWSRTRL
The experiment is described as above.

For experiment [3], the target named is T4, full-length human IL-13Rα2, yeast two-hybrid bait (pGBKT7-IL-13Rα2) (human) (UniProt Q14627).
T4 sequence: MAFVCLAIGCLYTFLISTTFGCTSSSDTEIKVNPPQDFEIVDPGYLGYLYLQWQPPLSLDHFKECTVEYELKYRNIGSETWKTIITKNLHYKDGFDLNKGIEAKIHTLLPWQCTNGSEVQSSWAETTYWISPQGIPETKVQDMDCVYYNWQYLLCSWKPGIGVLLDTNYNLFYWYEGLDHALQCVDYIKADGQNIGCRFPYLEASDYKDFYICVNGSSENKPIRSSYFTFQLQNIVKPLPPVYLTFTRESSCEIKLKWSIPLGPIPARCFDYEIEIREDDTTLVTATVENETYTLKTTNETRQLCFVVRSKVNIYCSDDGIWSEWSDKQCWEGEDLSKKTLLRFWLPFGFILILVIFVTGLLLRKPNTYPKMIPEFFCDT
As to the kind of experiment: two-hybrid; IL-13Rα2 constructs against full-length TMEM219, as described in ref. 13.

For experiment [4], the target named is T5, IL-13Rα2 in mouse lung (mouse (endogenous in lung)) (UniProt O88786).
T5 sequence: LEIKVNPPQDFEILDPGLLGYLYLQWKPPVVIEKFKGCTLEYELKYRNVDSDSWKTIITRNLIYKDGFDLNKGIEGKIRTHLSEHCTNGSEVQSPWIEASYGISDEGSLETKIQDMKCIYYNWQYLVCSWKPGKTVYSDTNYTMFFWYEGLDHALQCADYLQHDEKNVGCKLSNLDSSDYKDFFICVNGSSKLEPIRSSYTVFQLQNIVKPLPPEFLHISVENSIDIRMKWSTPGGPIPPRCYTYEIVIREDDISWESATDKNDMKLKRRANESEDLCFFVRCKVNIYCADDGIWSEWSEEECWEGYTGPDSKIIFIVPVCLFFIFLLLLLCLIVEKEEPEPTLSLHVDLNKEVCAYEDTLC
As to the kind of experiment: co-IP; Co-IP and IB with lung lysates from the progeny of crosses of IL-13 Tg mice and TMEM219-/- mice (with and without TMEM219).

For experiment [5], the target named is T6, human IL-13Rα2, full-length cDNA in pcDNA3.1, expressed in 1HAEo cells (human) (UniProt Q14627).
T6 sequence: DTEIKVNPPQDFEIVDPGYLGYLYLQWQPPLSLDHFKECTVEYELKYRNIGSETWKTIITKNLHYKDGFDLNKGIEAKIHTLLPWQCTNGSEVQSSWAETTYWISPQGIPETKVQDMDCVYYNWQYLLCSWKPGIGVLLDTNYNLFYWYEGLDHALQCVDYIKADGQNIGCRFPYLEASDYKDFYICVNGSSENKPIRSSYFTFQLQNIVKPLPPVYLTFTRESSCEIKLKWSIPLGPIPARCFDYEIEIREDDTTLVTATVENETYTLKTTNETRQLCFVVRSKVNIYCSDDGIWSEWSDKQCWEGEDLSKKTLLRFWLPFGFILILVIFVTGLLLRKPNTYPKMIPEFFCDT
The experiment can be described thus: co-IP; lysates of 1HAEo cells co-transfected with IL-13Rα2 and TMEM219 plasmids (pcDNA3.1); IP with anti-IL-13Rα2 or anti-TMEM219, immunoblot for the other; Catch and Release V2.0 kit.

In experiment [6] the target is T7, recombinant human IL-13Rα1 (human) (UniProt P78552).
T7 sequence: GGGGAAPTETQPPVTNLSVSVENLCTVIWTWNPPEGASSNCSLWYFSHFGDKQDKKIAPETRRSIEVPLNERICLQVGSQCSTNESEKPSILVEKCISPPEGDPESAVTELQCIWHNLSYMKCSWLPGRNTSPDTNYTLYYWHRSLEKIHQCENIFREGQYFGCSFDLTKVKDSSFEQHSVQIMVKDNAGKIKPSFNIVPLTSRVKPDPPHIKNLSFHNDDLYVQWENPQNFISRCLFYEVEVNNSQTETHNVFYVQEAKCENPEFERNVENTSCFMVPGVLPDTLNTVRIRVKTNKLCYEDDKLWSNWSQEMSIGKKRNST
As to the kind of experiment: co-IP; Co-IP/IB with recombinant human TMEM219 (350 ng), IL-13 (300 ng) and IL-13Rα1 (500 ng); both purified.

In experiment [7] the target is Chi3l1 (chitinase 3-like-1), expressed in insect cells, labelled (UniProt P36222). As to the kind of experiment: condition: TMEM219 nanodisc 10-10,000 nM, labelled protein 10 nM; fluorescence polarisation; fluorescence anisotropy; serial dilutions of TMEM219 in 13 nm nanodisc (10 nM-10 μM) added to 10 nM labelled protein or complex; PBS for labelling; empty nanodisc as control; both purified. In general terms: Fluorescence polarisation rises when a labelled molecule tumbles more slowly, as on binding a larger partner.

In experiment [8] the target is T8, ectodomain of IL-13Rα2 (ecto-IL-13Rα2), labelled (UniProt Q14627).
T8 sequence (chain, BODPY-TRM-X-succinimidyl ester label): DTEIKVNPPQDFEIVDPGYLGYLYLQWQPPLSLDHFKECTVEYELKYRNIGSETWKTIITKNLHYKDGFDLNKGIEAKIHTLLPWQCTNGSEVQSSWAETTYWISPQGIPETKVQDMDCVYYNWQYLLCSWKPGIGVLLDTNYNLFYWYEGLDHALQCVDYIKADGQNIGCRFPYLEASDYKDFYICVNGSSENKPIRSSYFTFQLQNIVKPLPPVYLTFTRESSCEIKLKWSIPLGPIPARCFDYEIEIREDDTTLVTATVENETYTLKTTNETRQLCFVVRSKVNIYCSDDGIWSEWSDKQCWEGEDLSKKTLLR
The description is as above.

In experiment [9] the target is T2, IL-13Rα2-V1 (human). The experiment can be described thus: split reporter; BiFC with Venus YFP fragments V1 and V2 in primary NHBE cells treated with rChi3l1 or rIL-13.

B1: human IL-13Rα2, full-length cDNA in pcDNA3.1, expressed in 1HAEo cells (receptor, UniProt Q14627 27-380)
chain: DTEIKVNPPQDFEIVDPGYLGYLYLQWQPPLSLDHFKECTVEYELKYRNIGSETWKTIITKNLHYKDGFDLNKGIEAKIHTLLPWQCTNGSEVQSSWAETTYWISPQGIPETKVQDMDCVYYNWQYLLCSWKPGIGVLLDTNYNLFYWYEGLDHALQCVDYIKADGQNIGCRFPYLEASDYKDFYICVNGSSENKPIRSSYFTFQLQNIVKPLPPVYLTFTRESSCEIKLKWSIPLGPIPARCFDYEIEIREDDTTLVTATVENETYTLKTTNETRQLCFVVRSKVNIYCSDDGIWSEWSDKQCWEGEDLSKKTLLRFWLPFGFILILVIFVTGLLLRKPNTYPKMIPEFFCDT
With B1, in experiment [1], the binding entry was “binds”.

B2: C-C chemokine receptor type 3 (CCR3)-V2 (receptor, UniProt P51677 1-355)
chain: MTTSLDTVETFGTTSYYDDVGLLCEKADTRALMAQFVPPLYSLVFTVGLLGNVVVVMILIKYRRLRIMTNIYLLNLAISDLLFLVTLPFWIHYVRGHNWVFGHGMCKLLSGFYHTGLYSEIFFIILLTIDRYLAIVHAVFALRARTVTFGVITSIVTWGLAVLAALPEFIFYETEELFEETLCSALYPEDTVYSWRHFHTLRMTIFCLVLPLLVMAICYTGIIKTLLRCPSKKKYKAIRLIFVIMAVFFIFWTPYNVAILLSSYQSILFGNDCERSKHLDLVMLVTEVIAYSHCCMNPVIYAFVGERFRKYLRHFFHRHLLMHLGRYIPFLPSEKLERTSSVSPSTAEPELSIVF
For the molecule B2, the binding entry with IL-13Rα2-V1 (human) [2] is on record as “no binding”.

B3: C-C chemokine receptor type 3 (CCR3)-V1 (receptor, UniProt P51677 1-355)
chain: MTTSLDTVETFGTTSYYDDVGLLCEKADTRALMAQFVPPLYSLVFTVGLLGNVVVVMILIKYRRLRIMTNIYLLNLAISDLLFLVTLPFWIHYVRGHNWVFGHGMCKLLSGFYHTGLYSEIFFIILLTIDRYLAIVHAVFALRARTVTFGVITSIVTWGLAVLAALPEFIFYETEELFEETLCSALYPEDTVYSWRHFHTLRMTIFCLVLPLLVMAICYTGIIKTLLRCPSKKKYKAIRLIFVIMAVFFIFWTPYNVAILLSSYQSILFGNDCERSKHLDLVMLVTEVIAYSHCCMNPVIYAFVGERFRKYLRHFFHRHLLMHLGRYIPFLPSEKLERTSSVSPSTAEPELSIVF
For B3, in the experiment with TMEM219-V2 (human), the binding entry was “no binding”.

B4: full-length TMEM219 in the yeast two-hybrid mapping assay (protein, UniProt Q86XT9 1-240)
chain: MGNCQAGHNLHLCLAHHPPLVCATLILLLLGLSGLGLGSFLLTHRTGLRSPDIPQDWVSFLRSFGQLTLCPRNGTVTGKWRGSHVVGLLTTLNFGDGPDRNKTRTFQATVLGSQMGLKGSSAGQLVLITARVTTERTAGTCLYFSAVPGILPSSQPPISCSEEGAGNATLSPRMGEECVSVWSHEGLVLTKLLTSEELALCGSRLLVLGSFLLLFCGLLCCVTAMCFHPRRESHWSRTRL
For the molecule B4, in experiment [3], the binding result was “binds”.

B5: IL-13 in lungs of IL-13 transgenic mice (ligand, UniProt P20109 19-131)
chain: APGPVPRSVSLPLTLKELIEELSNITQDQTPLCNGSMVWSVDLAAGGFCVALDSLTNISNCNAIYRTQRILHGLCNRKAPTTVSSLPDTKIEVAHFITKLLSYTKQLFRHGPF
With B5, the binding result in experiment [4] was “binds”.

B6: human TMEM219, full-length cDNA in pcDNA3.1, expressed in 1HAEo cells (protein, UniProt Q86XT9 39-240)
chain: SFLLTHRTGLRSPDIPQDWVSFLRSFGQLTLCPRNGTVTGKWRGSHVVGLLTTLNFGDGPDRNKTRTFQATVLGSQMGLKGSSAGQLVLITARVTTERTAGTCLYFSAVPGILPSSQPPISCSEEGAGNATLSPRMGEECVSVWSHEGLVLTKLLTSEELALCGSRLLVLGSFLLLFCGLLCCVTAMCFHPRRESHWSRTRL
Take B6: in experiment [5], the binding result is given as “binds”.

B7: His-tagged human TMEM219 (protein, UniProt Q86XT9 39-240)
chain: SFLLTHRTGLRSPDIPQDWVSFLRSFGQLTLCPRNGTVTGKWRGSHVVGLLTTLNFGDGPDRNKTRTFQATVLGSQMGLKGSSAGQLVLITARVTTERTAGTCLYFSAVPGILPSSQPPISCSEEGAGNATLSPRMGEECVSVWSHEGLVLTKLLTSEELALCGSRLLVLGSFLLLFCGLLCCVTAMCFHPRRESHWSRTRL
For the molecule B7, the binding entry in [6] was “no binding (tested: rhTMEM219 350 ng, IL-13Rα1 500 ng)”; in experiment [7], “no binding”; in experiment [8], “no binding”.

B8: TMEM219-V2 (protein, UniProt Q86XT9 39-240)
chain: SFLLTHRTGLRSPDIPQDWVSFLRSFGQLTLCPRNGTVTGKWRGSHVVGLLTTLNFGDGPDRNKTRTFQATVLGSQMGLKGSSAGQLVLITARVTTERTAGTCLYFSAVPGILPSSQPPISCSEEGAGNATLSPRMGEECVSVWSHEGLVLTKLLTSEELALCGSRLLVLGSFLLLFCGLLCCVTAMCFHPRRESHWSRTRL
Take B8: the binding result in the experiment with IL-13Rα2-V1 (human) [9] and in the experiment with IL-13Rα2-V1 (human) [2] was “binds” throughout.
